# The other results are listed elsewhere or left out.
# Target: T1, OsWOX13 (Oryza sativa, UniProt Q5QMM3 1-267)
# T1 sequence: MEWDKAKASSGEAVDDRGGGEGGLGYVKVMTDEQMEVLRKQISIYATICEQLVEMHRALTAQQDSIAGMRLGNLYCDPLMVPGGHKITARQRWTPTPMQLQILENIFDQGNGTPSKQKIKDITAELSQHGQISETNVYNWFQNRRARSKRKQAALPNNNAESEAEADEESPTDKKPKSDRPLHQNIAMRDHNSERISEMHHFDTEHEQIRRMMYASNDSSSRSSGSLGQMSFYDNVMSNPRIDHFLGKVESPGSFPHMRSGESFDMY
# Experiment: protein-binding microarray (RPBM); PBS, 2% BSA, 51.3 ng/ul salmon testes DNA, 50 uM zinc acetate, 200 nM TF, 25 C, 1 h; high values mean tight binding
# Conditions: protein: recombinant; tags: N-terminal polyhistidine and DsRed monomer fusion (pET32a); label: CyDye5-dUTP incorporated in the synthesized complementary strand; 3' TTTTT single-stranded linker to array surface; dsDNA, one strand shown
# Summary of the method: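 Ni–NTA purification followed expression in E. coli BL21-CodonPlus of transcription factors fused N-terminally to a polyhistidine tag and DsRed. At 200 nM in PBS with 2% BSA, salmon testes DNA and 50 µM zinc acetate, the protein was incubated for 1 h at 25 °C with a custom Agilent array that had been primer-extended with Cy5-dUTP and blocked with 2% BSA. After washing, the array was read on an Axon 4000B scanner. The binding signal is per-feature fluorescence intensity in arbitrary units.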
row,Sequence,binding signal
1,TGATGAGATTGATCCGATGATCTCCTCTTTAAATTTCTCGCGGAGTCACCTAGTGCAG,19100 fluorescence intensity (a.u.)
2,TACAAACTATAATTTGCACTATGTCCGTATTAATGAAAATCGGAGTCACCTAGTGCAG,7290 fluorescence intensity (a.u.)
3,ATATTATAATTATGCGTTTGTTATGTGGGATATTATTTATCGGAGTCACCTAGTGCAG,10100 fluorescence intensity (a.u.)
4,GAAATAATAATATTAATTGAATGCAGATTAGGTGTAGATACGGAGTCACCTAGTGCAG,30400 fluorescence intensity (a.u.)
5,ATTAATTAGCTGCCCGCAGACAAGACCCGTGACTTTGGCCCGGAGTCACCTAGTGCAG,23800 fluorescence intensity (a.u.)
6,CAATAATTGTATCTCTTGTGAGTTGCCACCGGAGGCCCATCGGAGTCACCTAGTGCAG,15900 fluorescence intensity (a.u.)
7,ATCTATAATTTGTTTTGTTATTAGTCTATATTTAATACTTCGGAGTCACCTAGTGCAG,7820 fluorescence intensity (a.u.)
8,ATGACTCATACTCTTAATTGTTATCTGTGTAAGTTGTGACCGGAGTCACCTAGTGCAG,4460 fluorescence intensity (a.u.)
9,AGATTAATTAGGCTTAATAGATTCGTCTACGTTTAATACTCGGAGTCACCTAGTGCAG,20900 fluorescence intensity (a.u.)
10,AAATTGATGAAACGGTGTATGGTGAAGACGCTGATTCGTCCGGAGTCACCTAGTGCAG,5080 fluorescence intensity (a.u.)
11,ATAATGATAATGACTAATTACTCCTCCGTTTCATACAGGTCGGAGTCACCTAGTGCAG,27600 fluorescence intensity (a.u.)
12,TAGAAGTTTGATTGAAATTGAAACGATATGATGGAAAAGTCGGAGTCACCTAGTGCAG,44500 fluorescence intensity (a.u.)
13,TGGGATAAATCACTTCTTCAATTAGGCCCGGTTTAGTTCTCGGAGTCACCTAGTGCAG,12500 fluorescence intensity (a.u.)
14,AAAACCTTATCAATCATTCAAGGGATCTTTTCCCCTTTGACGGAGTCACCTAGTGCAG,12900 fluorescence intensity (a.u.)
15,GGGTGATATAAATTAGGAGGTGATAATAATTATTTCTTGGCGGAGTCACCTAGTGCAG,26700 fluorescence intensity (a.u.)
16,ACGCATCAACAGTGGAGGGAGGGGAGGGGAGGAGCTTCCCCGGAGTCACCTAGTGCAG,3270 fluorescence intensity (a.u.)
17,GATGGTGATTTGCCACTCGATACTAGCGACTATTGACTTGCGGAGTCACCTAGTGCAG,15200 fluorescence intensity (a.u.)
18,CCTACCGCTATTTGCTTGATTAACAGCCGAATCATACCATCGGAGTCACCTAGTGCAG,4380 fluorescence intensity (a.u.)
19,TTGATGATTGGTGGAGGAAAAGGAACTTACTCCTTCCGTTCGGAGTCACCTAGTGCAG,49400 fluorescence intensity (a.u.)
20,GCTTTACTCAATCAGCAGATACAGCTCATTTACAGCAAAGCGGAGTCACCTAGTGCAG,6660 fluorescence intensity (a.u.)
21,GGCTTATTATGTTTAGAAGATTAGAAAATCTACACAACATCGGAGTCACCTAGTGCAG,3360 fluorescence intensity (a.u.)

row,Sequence,binding signal
1,ATGGTTGATTGCTTGATCAAGGCATGCATCACTTGCTATGCGGAGTCACCTAGTGCAG,55800 fluorescence intensity (a.u.)
2,CTAATCCCAGATTGCTAGTGATTAGCACGTAGATACATAGCGGAGTCACCTAGTGCAG,21700 fluorescence intensity (a.u.)
3,CCACTCATAATTTAATTCGTCTATAATAAGATAGGTTTCTCGGAGTCACCTAGTGCAG,6270 fluorescence intensity (a.u.)
4,ATTGGACCTGAACACTGCTAATTAATTGGTATAAGTCATCCGGAGTCACCTAGTGCAG,8360 fluorescence intensity (a.u.)
5,TTGGCTACATCGATTGATTGATCAGAGAGAGATATAACGACGGAGTCACCTAGTGCAG,21500 fluorescence intensity (a.u.)
6,CAAGATAATTACAAGTTTATAAAACAAACTACTACAGGGACGGAGTCACCTAGTGCAG,27200 fluorescence intensity (a.u.)
7,GAAGATTTAATTGCAACGAATTTAATGGTGCAATCGGATCCGGAGTCACCTAGTGCAG,23200 fluorescence intensity (a.u.)
8,GTGTTTTCTATCAACAATCAACGACAGTTAGTTTTCTTTTCGGAGTCACCTAGTGCAG,5000 fluorescence intensity (a.u.)
9,ATTGATTATACTCGCCAGTCCTTCAGAGAAACCACGCCACCGGAGTCACCTAGTGCAG,22400 fluorescence intensity (a.u.)
10,GAACAATCAATTTAATAGCCCCACACTGCGACGCAACTCTCGGAGTCACCTAGTGCAG,14400 fluorescence intensity (a.u.)
11,AAGGAAATTGGTGCTGATGTATGTGAAATGTGGGGATTTGCGGAGTCACCTAGTGCAG,19100 fluorescence intensity (a.u.)
12,CTCTGAATCAAACTTCTCTAATTATATCTAGGCTTTGTTCCGGAGTCACCTAGTGCAG,3300 fluorescence intensity (a.u.)
13,CTAATAGGATAAATCAATTGGTAACCTTGTATGTCCATAACGGAGTCACCTAGTGCAG,13700 fluorescence intensity (a.u.)
14,TTGCCAATTATGATTGGAGATTTACAAGTAGACTTCAATACGGAGTCACCTAGTGCAG,18500 fluorescence intensity (a.u.)
15,CCAACCTTAATTAATTAAGCTAAATTTCACGCTAATCCTACGGAGTCACCTAGTGCAG,44500 fluorescence intensity (a.u.)
16,ACGATGATTATGTACGATTTACGGTTGTGTATTTCATAGTCGGAGTCACCTAGTGCAG,29800 fluorescence intensity (a.u.)
17,CACAGTGATATAACTCATTAATCTTACTTATTAATTTCTTCGGAGTCACCTAGTGCAG,3330 fluorescence intensity (a.u.)
18,CAATGATTTAGGCCAGGGGTTCCACTCAAAGGCCCAATAGCGGAGTCACCTAGTGCAG,4020 fluorescence intensity (a.u.)
19,GGTACATGAACAATGGTTGATTGCTGGGGCTGAGCAGGGCCGGAGTCACCTAGTGCAG,8960 fluorescence intensity (a.u.)
20,ATTAGTAAATATTAAATTAATCATAAGAAAATGTTTCACTCGGAGTCACCTAGTGCAG,4860 fluorescence intensity (a.u.)
21,TGATTAGTGATTAGTGCTAATCATAATTAGTGCCTACAAGCGGAGTCACCTAGTGCAG,49200 fluorescence intensity (a.u.)

# — article PMC7819943, “Rice protein-binding microarrays: a tool to detect cis-acting elements near promoter regions in rice”
